Measurements as given in PubChem BioAssay (NCI).
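A five-concentration, 48-hour dose response in 96-well plates underlies each endpoint, interpolated linearly between surrounding concentrations. At the GI50, growth is halved. TGI is the concentration that stops growth completely.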

system: NCI-H322M lung; assay: inhibition of tumour cell growth, NCI panel, 48 h

Row | SMILES | GI50 | TGI
1 | C=CC(=O)N1CCN(c2ncnc3c(F)c(-c4c(O)cccc4F)c(Cl)cc23)CC1 | 14.2 µM | 27.3 µM
2 | COc1ccc(N2C(=O)C3c4[nH]c5ccccc5c4C4C(C)CCCC4C3C2=O)cc1 (stereo unspecified) | – | > 100 µM
3 | Cc1c(C(=O)NN)nnn1-c1ccnc2c(C(F)(F)F)cccc12 | > 100 µM | > 100 µM
4 | CC1CCCC(C(=O)/C(=C/c2cccc(Cl)c2)C(=O)C(=O)O)C1 (stereo unspecified) | – | > 100 µM
5 | CC(C)(C)c1ccc2c(c1)OCc1n[nH]c(n1)COc1cc(C(C)(C)C)ccc1OCCOCCO2 | – | 30.4 µM
6 | CCC1(CC)C(=O)NC(=S)N=C1N | – | > 100 µM
7 | NC(N)=N/N=C/c1c(-c2ccccn2)nc2sc(Cl)cn12 | 5.72 µM | 11.9 µM
8 | N#CC(C#N)=Cc1cccc(Oc2ccccc2)c1 | – | > 100 µM
9 | CCOc1cccc2nc3cccc(C(=O)NCCN(C)C)c3nc12 | – | 9.23 µM
10 | COc1cc(/C=C/c2cc(=O)cc(/C=C/c3ccc(O)c(OC)c3)o2)ccc1O | – | > 100 µM
11 | CCOC(=O)Cc1nn2c(=O)cc(C)nc2s1 | – | > 100 µM
12 | Cc1ccc(C(=O)CC(Sc2cccc(Cl)c2Cl)c2ccc(Cl)cc2)cc1C (stereo unspecified) | 17.9 µM | 43.3 µM
13 | COC1OC2COC(C)(C)OC2C2OC(C)(C)OC12 (stereo unspecified) | – | > 100 µM
14 | CN1CCN(Cc2ccc(NC(=O)c3ccc(C(C)(C)C)c(C#Cc4cnc5cccnn45)c3)cc2C(F)(F)F)CC1 | 4.63 µM | 17.9 µM
15 | COn1cc(CO)c2ccccc21 | – | > 100 µM
16 | CNc1ccc2c(c1)Cc1ccccc1-2 | – | > 100 µM
17 | COC(=O)C1=C(C)N2[C@H](C(=O)O)CS[C@@]2(C)[C@H](C(=O)OC)[C@H]1c1cccc([N+](=O)[O-])c1 | – | > 100 µM
18 | COC(=O)c1c(O)ccc2[nH]c(C)c(C#N)c12 | 35.7 µM | 97.7 µM
19 | Oc1c(Br)cc(CN(Cc2cc(Br)c(O)c(Br)c2)C2CCCCC2)cc1Br | – | > 100 µM
20 | COc1cc(/C=C/C(=N\NC(=O)c2ccccc2)c2sc(Nc3ccc(Cl)c(Cl)c3)nc2C)ccc1O | – | > 100 µM
21 | COc1ccc(/C=C/C(=O)c2sc(-n3nc(-c4ccccc4)cc3-c3ccccc3)nc2C)cc1OC | – | > 100 µM
22 | O=C1c2c(c3c4ccc(Br)cc4oc3c3[nH]c4ccccc4c23)C(=O)N1O | 2.88 µM | > 100 µM
23 | CC1=C(C)C(=O)O[C@@H]([C@](C)(O)[C@]2(O)CC[C@@]3(O)[C@@H]4C[C@H]5O[C@]56CC=CC(=O)[C@]6(C)[C@H]4CC[C@]23C)C1 | 0.44 µM | 3.81 µM
24 | CC(=O)OCCOCBr | – | > 100 µM
25 | Cc1ncc([N+](=O)[O-])n1CCNC(=O)CCCCn1ccnc1[N+](=O)[O-] | – | > 100 µM
26 | COc1cc2c(cc1O)CC[n+]1cc3c(OC)c(OC)ccc3cc1-2 | – | > 100 µM

Row | SMILES | GI50 | TGI
27 | CCCCCCNc1nc(NCCCCCC)c2[nH]c(NCCCCCC)nc2n1 | 1.65 µM | 17 µM
28 | Clc1ccc(OCc2nnc3n2N=C(c2ccc(Cl)cc2Cl)CS3)c(Cl)c1 | 27.5 µM | > 100 µM
29 | CCCC[C@@H]1CCN2C[C@@H](O)[C@@H](O)[C@H]2[C@@H]1O | – | > 100 µM
30 | O=C(Nc1cc(-c2ccccc2)[nH]n1)c1ccc(Cl)cc1 | 6 µM | > 100 µM
31 | COc1cc2nc(-c3c(F)cccc3F)n(Cc3c(F)cccc3F)c2cc1Cc1c(F)cccc1F | – | > 100 µM
32 | COc1ccc2c(c1)[C@@]13CCN4CC5=CCO[C@H]6CC(=O)N2[C@H]1[C@H]6[C@H]5C[C@H]43 | – | > 100 µM
33 | Cc1ccc2/c(=C/c3ccc(N(C)C)cc3)c3cc(-c4ccccc4)[n+](C)n3c2c1 | 0.657 µM | 2.06 µM
34 | Clc1ccc(CNc2nc3ccccc3nc2-c2cccs2)c(Cl)c1 | – | > 100 µM
35 | COC(=O)C(CCSC)NC(=O)CSc1nnc(COc2ccc(Cl)cc2)n1-c1ccccc1 (stereo unspecified) | – | 29.8 µM
36 | O=C1NC(=S)S/C1=C/c1ccco1 | – | > 100 µM
37 | COc1cc2c(cc1OCCCOc1cc3c(cc1OC)C(=O)N1CCC[C@H]1CN3)N=C[C@@H]1CCCN1C2=O | – | 0.609 µM
38 | O=C(O)c1cc2ccccc2c(S(=O)(=O)O)c1O | – | > 100 µM
39 | FC(F)=C(c1ccc(-c2ccc(Cl)cc2)cc1)C(F)(F)F | – | 34.8 µM
40 | C=C1CC2C(=O)N(c3ccccc3)C(=O)C2CC1n1[nH]c(=O)n(Cc2ccccc2)c1=O (stereo unspecified) | – | > 100 µM
41 | O=C1NN=C(c2c[nH]c3ccccc23)CC1NCc1ccccc1 (stereo unspecified) | – | > 100 µM
42 | CCOC(=O)[C@@H](C)C[C@H](Cc1ccccc1)NC(=O)c1csc([C@@H](C[C@H](C(C)C)N(C)C(=O)[C@@H](NC(=O)[C@H]2CCCCN2C)C(C)(C)C)OC(C)=O)n1 | < 0.00167 µM | > 16.7 µM
43 | O=C(NN1C(=O)CSC1c1ccc(Cl)c(Cl)c1)c1ccncc1 (stereo unspecified) | – | > 100 µM
44 | Cc1ccc([N+](=O)[O-])c2c(NCCCN(C)C)ccnc12 | – | > 100 µM
45 | CCCSc1cc(Cl)nc(N)n1 | > 100 µM | > 100 µM
46 | O=C1N[C@@H](O)[C@@H]2ON=C(c3ccccc3)[C@H]12 | – | > 100 µM
47 | COC(=O)NC/C=C\c1nc(CC/C=C\C(=O)OC2CC3CC(=O)O[C@@H](/C=C/CC(C)C)C[C@@H]4CCC(C)C(C[C@@H](OC)CC(C2)O3)O4)co1 (stereo partly specified) | 15.8 µM | > 100 µM
48 | CC1(C)[C@@H]2C[C@H]1c1cnc(-c3ccccn3)cc1[C@H]2C(O)[C@@H]1c2cc(-c3ccccn3)ncc2[C@H]2C[C@@H]1C2(C)C (stereo partly specified) | – | 18.6 µM
49 | CCc1cc(=O)n(/C(C)=C/c2ccccc2)n1C | – | > 100 µM
50 | C[C@@H]1C(=O)CC2(O)[C@@]13C[C@@H](OC(=O)[C@@H]3O)[C@@H](C)[C@@]21COC1=O (stereo partly specified) | – | > 100 µM
51 | COC(=O)C1=C(C(=O)OC)C2(C)CCC(=O)C1O2 (stereo unspecified) | – | > 10 µM
